This passage reports binding signal results from PMC7819943, “Rice protein-binding microarrays: a tool to detect cis-acting elements near promoter regions in rice”.

This is one part of the list.

The experiment addresses T1, OsWOX13 (Oryza sativa, UniProt Q5QMM3 1-267).
T1 sequence: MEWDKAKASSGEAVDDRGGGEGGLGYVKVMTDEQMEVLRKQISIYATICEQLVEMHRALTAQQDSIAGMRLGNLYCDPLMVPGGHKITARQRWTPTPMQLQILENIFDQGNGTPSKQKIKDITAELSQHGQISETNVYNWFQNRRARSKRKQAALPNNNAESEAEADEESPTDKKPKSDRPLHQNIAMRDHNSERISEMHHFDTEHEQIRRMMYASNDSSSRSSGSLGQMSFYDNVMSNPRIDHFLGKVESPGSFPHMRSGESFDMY
Briefly: protein-binding microarray (RPBM); PBS, 2% BSA, 51.3 ng/ul salmon testes DNA, 50 uM zinc acetate, 200 nM TF, 25 C, 1 h; high values mean tight binding. Particulars: protein: recombinant; tags: N-terminal polyhistidine and DsRed monomer fusion (pET32a); label: CyDye5-dUTP incorporated in the synthesized complementary strand; 3' TTTTT single-stranded linker to array surface; dsDNA, one strand shown. A digest of the protocol:
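Binding signal is defined as the fluorescence intensity of each feature in arbitrary units, read on an Axon 4000B scanner. Transcription factors with N-terminal polyhistidine and DsRed fusions came from E. coli BL21-CodonPlus and were purified on Ni–NTA. They were incubated at 200 nM for 1 h at 25 °C on a custom Agilent array that had been made double-stranded with Cy5-dUTP, with 50 µM zinc acetate present, and the array was washed.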
“TGTGCAGATTGAATAATAGTTTGAATTTTCGATCTTCACACGGAGTCACCTAGTGCAG”: the binding signal is 10700 fluorescence intensity (a.u.). Consider “CTAATTAATCCGTCATTAGAAAATGTTTACTGCATCATACCGGAGTCACCTAGTGCAG”, for which the binding signal was 9970 fluorescence intensity (a.u.). The result for “TTCGTCTGATTTAATCTTATGACAAGAAAGGTAAATACATCGGAGTCACCTAGTGCAG” reads 8330 fluorescence intensity (a.u.).

For the sequence “GTCCAACGAGTCAATCACACCCTGAGAGCGAATTCTGGCCCGGAGTCACCTAGTGCAG”, the binding signal is 19000 fluorescence intensity (a.u.). For “TCAACTAATCGTACGCTAATGACTTACCAAATTTTACGTACGGAGTCACCTAGTGCAG”, the binding signal is 3460 fluorescence intensity (a.u.). The result for “TTGGCAAATTGACCGTGATGGGTTCTTTGTTTCCGTTTGCCGGAGTCACCTAGTGCAG” reads 39500 fluorescence intensity (a.u.); that for “AACTCATCCCCAATTATATATAACTGTATACGGAAATGCCCGGAGTCACCTAGTGCAG”, 4680 fluorescence intensity (a.u.); that for “TGTTTAATTACAAGGAATTTCATTGATGACAGTTCAATATCGGAGTCACCTAGTGCAG”, 10900 fluorescence intensity (a.u.).

As to “TCAATGATTGCTGTATAAATGTTGTGTTGTGCAAATTATGCGGAGTCACCTAGTGCAG”, the binding signal was 29700 fluorescence intensity (a.u.). For the sequence “AATTGGAGACTGATTAGAGAGCTAGGCGAGCGAGGAGGAACGGAGTCACCTAGTGCAG”, the binding signal was 4920 fluorescence intensity (a.u.). Under “CCTGCTTAATTAATCCATTATTACCTCCATGCCACATCTCCGGAGTCACCTAGTGCAG” stands 18500 fluorescence intensity (a.u.); under “AAAACGGCACTGATGACAATAATTGCTGGCCATGGTTTCACGGAGTCACCTAGTGCAG”, 5900 fluorescence intensity (a.u.). With “ACTACTAAGTTAATTGCATTTTACTTCTCTCTCAATCTCGCGGAGTCACCTAGTGCAG”, the binding signal was 10000 fluorescence intensity (a.u.). As for “ATGTGCTAATTACTAACTAACAACCACTAGGTTTGACTATCGGAGTCACCTAGTGCAG”, the binding signal is 20600 fluorescence intensity (a.u.). Consider “ACTCTCTCCCGGCAATAATTGGTGACTGCTTCCACTTTTACGGAGTCACCTAGTGCAG”, for which the binding signal was 5520 ± 996 fluorescence intensity (a.u.). Regarding “ATGATATAATTAATTAATTAGCGCGCGGTTCCACCTCCCGCGGAGTCACCTAGTGCAG”, the binding signal was 60200 fluorescence intensity (a.u.). As to “TTGATGATGACAGATCGAATGGTCAGGATTAGTTGGTACCCGGAGTCACCTAGTGCAG”, the binding signal is 25500 fluorescence intensity (a.u.).

Consider “AGGGGATTAATTCCACTCATTAATAGATGTGAAATTATTCCGGAGTCACCTAGTGCAG”, for which the binding signal was 12300 fluorescence intensity (a.u.). In the case of “AATTAATAGTTTTAATTTAAAAGACACCTGATGAATAGAACGGAGTCACCTAGTGCAG”, the binding signal is 9880 fluorescence intensity (a.u.). As for “GTAAATTGTTTACTATCGAATGTACATGCTATATATATTGCGGAGTCACCTAGTGCAG”, the binding signal was 20400 fluorescence intensity (a.u.). As to “GTATAATGGATAACATAGCAGCTATATGTAAAACTCCATTCGGAGTCACCTAGTGCAG”, the binding signal is 3430 fluorescence intensity (a.u.). “ATGGTGATGATGTGGCATATTGACATGTGGGACCCACGTGCGGAGTCACCTAGTGCAG”: the binding signal was 6120 fluorescence intensity (a.u.).

On to “CATTAACTGAAAAGAGAGAGTTGATATATGATAGTACCTCCGGAGTCACCTAGTGCAG”, for which the binding signal is 8460 fluorescence intensity (a.u.).

Regarding “TAATAATTTGAGGGTGAATAGCCAATCTAGTCCCTCAAGTCGGAGTCACCTAGTGCAG”, the binding signal is 12300 fluorescence intensity (a.u.). Turning to “TTTTATTTGACTGGTGGATGAAATACCAATCTTGTTTGGCCGGAGTCACCTAGTGCAG”, the binding signal was 16000 fluorescence intensity (a.u.). As to “TACTACTGACATAACTAAATTAAGTACACATATCCCAAGGCGGAGTCACCTAGTGCAG”, the binding signal is 13500 fluorescence intensity (a.u.). Regarding “GGTGGTGGTGGTGGTGGTGGTGGCGTCGAGATAGTGAGCGCGGAGTCACCTAGTGCAG”, the binding signal was 8140 fluorescence intensity (a.u.).

Consider “CACGTGGTGATTAGATAGTACTGTAGATTAGCATTAGGTTCGGAGTCACCTAGTGCAG”, for which the binding signal was 23900 fluorescence intensity (a.u.). For “AGCTTGGAATTGATTGTTCATCTTCTGTATTCAGTCAAGTCGGAGTCACCTAGTGCAG”, the binding signal is 28000 fluorescence intensity (a.u.). The result for “TGCATCCTGATATGATTGCCGTCCAATCGGGAACGCGCCTCGGAGTCACCTAGTGCAG” reads 18400 fluorescence intensity (a.u.). “TCAAATTTAAATAAATGGATGTAACATTTATTATATCGCACGGAGTCACCTAGTGCAG”: the binding signal was 22400 fluorescence intensity (a.u.). As for “TTTCGTTAATGGAGACTGACATCATGGATTTTAGTTTCCTCGGAGTCACCTAGTGCAG”, the binding signal is 16500 fluorescence intensity (a.u.). With “TTTCTAATCTTCTAGATTGAGTTATTTTGGGACGGATAGACGGAGTCACCTAGTGCAG”, the binding signal is 6810 fluorescence intensity (a.u.). The result for “AAGATTATTAATTAGAGATATTTCATCTGGCATTTATAAACGGAGTCACCTAGTGCAG” reads 11400 fluorescence intensity (a.u.); that for “CCTACCTCCATTATTCATCCAATCACAACCCTCCACCAATCGGAGTCACCTAGTGCAG”, 7860 fluorescence intensity (a.u.). For “CTGACGAGTTATTATTAACCCACCCACCCGGAAGCCACTGCGGAGTCACCTAGTGCAG”, the binding signal is 3300 fluorescence intensity (a.u.). Under “AAAACACTAGGATAATTAGCTTGAGCCATATGCTTATCTCCGGAGTCACCTAGTGCAG” stands 5750 fluorescence intensity (a.u.); under “CTGATAGATAGATATGAATGAATATGGTGCATGGGCGTTGCGGAGTCACCTAGTGCAG”, 27500 fluorescence intensity (a.u.).

In the case of “CTACCAACTGCAATGATTACTTGATTAGTGAAAGGAGCATCGGAGTCACCTAGTGCAG”, the binding signal was 9830 fluorescence intensity (a.u.).

With “ATGTTTGATTAGCCAGCACGCGATTCTTGTGTTAATAGTTCGGAGTCACCTAGTGCAG”, the binding signal is 29000 fluorescence intensity (a.u.).

As for “TCACATTTATATTGATGTTAATGAATCTAAATAGATAAATCGGAGTCACCTAGTGCAG”, the binding signal was 4070 fluorescence intensity (a.u.). “TCACCATTGATTAGCGAATAAGATGGTGATTAGTGTCGCCCGGAGTCACCTAGTGCAG”: the binding signal is 30300 fluorescence intensity (a.u.).
